Data on 53 compounds can be found in PMC4336329 (PLoS ONE, 2015).

SMILES strings stand for the structures. Out of some 310,000 compounds screened, about 14,000 (4.5%) showed an effect of 50% or more. Effects have a minus sign here. The list shows a part of the results.
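Further: peak tail current of the secondary pulse compared with the same well before compound.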

In this assay the target is human ether-à-go-go-related gene (hERG) potassium channel (human, UniProt Q12809). As to the kind of experiment: primary screen, population patch clamp on CHO cells stably expressing hERG.
Sequence of human ether-à-go-go-related gene (hERG) potassium channel (Q12809 whole entry, looked up): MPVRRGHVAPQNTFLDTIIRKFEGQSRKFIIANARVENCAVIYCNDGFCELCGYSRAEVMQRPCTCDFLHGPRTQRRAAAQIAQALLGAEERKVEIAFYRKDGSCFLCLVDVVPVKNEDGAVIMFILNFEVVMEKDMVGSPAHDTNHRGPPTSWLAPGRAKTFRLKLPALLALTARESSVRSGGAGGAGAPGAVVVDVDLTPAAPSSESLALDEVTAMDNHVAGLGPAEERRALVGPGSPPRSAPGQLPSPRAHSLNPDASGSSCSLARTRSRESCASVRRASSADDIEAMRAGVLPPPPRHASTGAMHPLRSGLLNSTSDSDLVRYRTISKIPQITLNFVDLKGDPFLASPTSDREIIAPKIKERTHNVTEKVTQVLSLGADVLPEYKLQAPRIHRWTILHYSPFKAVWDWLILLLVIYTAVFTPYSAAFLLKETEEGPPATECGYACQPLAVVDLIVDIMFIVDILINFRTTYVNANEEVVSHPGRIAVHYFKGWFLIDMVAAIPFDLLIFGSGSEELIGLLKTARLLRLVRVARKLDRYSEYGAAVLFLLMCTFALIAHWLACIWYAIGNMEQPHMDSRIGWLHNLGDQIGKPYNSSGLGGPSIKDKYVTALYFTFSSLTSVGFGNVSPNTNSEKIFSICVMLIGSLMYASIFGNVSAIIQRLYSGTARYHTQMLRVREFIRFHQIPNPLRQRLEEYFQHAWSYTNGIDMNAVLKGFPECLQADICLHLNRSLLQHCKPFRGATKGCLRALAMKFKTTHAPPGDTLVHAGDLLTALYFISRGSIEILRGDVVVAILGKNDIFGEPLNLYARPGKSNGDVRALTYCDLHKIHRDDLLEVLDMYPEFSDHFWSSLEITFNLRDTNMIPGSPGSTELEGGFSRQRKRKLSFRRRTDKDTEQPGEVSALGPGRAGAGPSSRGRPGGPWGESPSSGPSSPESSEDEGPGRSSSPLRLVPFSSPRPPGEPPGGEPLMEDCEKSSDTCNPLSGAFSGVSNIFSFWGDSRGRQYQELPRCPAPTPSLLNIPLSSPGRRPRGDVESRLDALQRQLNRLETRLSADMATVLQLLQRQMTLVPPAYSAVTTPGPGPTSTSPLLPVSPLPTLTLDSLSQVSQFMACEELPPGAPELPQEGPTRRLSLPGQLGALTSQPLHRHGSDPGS
Take `CCOC(=O)c1c(C2CC2)csc1NC(=O)COC(=O)c1ccc[n+]([O-])c1`: the “hERG current change (%, negative = inhibition) at 10uM” value is -11%. To `Cc1ccc(N(CC(=O)Nc2cccc(N(C)S(C)(=O)=O)c2)S(C)(=O)=O)cc1` belongs -0.107%; to `COc1ccc(N2C(=O)CN=C2Nc2nc(C)cc(C)n2)cc1OC`, -4.68%.

As for `Cc1oc2c(C)c3oc(=O)c(CC(=O)N[C@@H](CCCNC(N)=O)C(=O)O)c(C)c3cc2c1C`, the “hERG current change (%, negative = inhibition) at 10uM” value stood at 7.9%. `CCC(C(=O)OCC(=O)Nc1c(C)nn(-c2ccccc2)c1C)c1ccccc1` (centres unmarked): the “hERG current change (%, negative = inhibition) at 10uM” value was -17.1%. Under `O=C(Nc1ccc(N2CCN(C(=O)c3cccs3)CC2)cc1)c1cccnc1` stands -7.59%; under `COc1ccc(C)cc1S(=O)(=O)N1CCC(C(=O)N2CCOCC2)CC1`, -9.35%. Under `COC(=O)CC1=C(C)C(=O)CC2C(C)(C)CCCC12C` (centres unmarked) stands -5.46%. To `O=c1[nH]cnc2c1ncn2[C@H]1CC[C@@H](CO)O1` belongs 12.2%; to `CC(=O)Nc1ccccc1C(=O)C(=O)Nc1cccc(Br)c1`, 2.76%; to `O=C(CSc1c2c(nc3ccc(Cl)cc13)CCCC2)NCc1ccco1`, -20.2%. Turning to `COc1ccccc1C1C(C#N)=C(N)Oc2cc(C)n(CCCn3ccnc3)c(=O)c21` (centres unmarked), the “hERG current change (%, negative = inhibition) at 10uM” value was -3.33%. Under `Cn1c(Cl)nc2ccccc21` stands 0.419%; under `COc1ccc([N+](=O)[O-])cc1NC(=O)C(C)OC(=O)/C=C/c1ccco1` (centres unmarked), -8.55%; under `O=C1NC(Cc2c[nH]c3ccccc23)C(=O)N1CCOc1ccc(F)cc1` (centres unmarked), -16.8%. Under `Cc1cc(C)c(C)c(OCCCCn2cnc3ccccc3c2=O)c1` stands -3.01%; under `Cc1ccc2c(Cl)cc(Cl)c(OCC(=O)Nc3cc(S(=O)(=O)N(C)C)ccc3C)c2n1`, 10.6%.

For the compound `CC1(C)C(=O)Nc2ccccc2N1C(=O)COc1ncnc2c(Cl)cc(Cl)cc12`, the “hERG current change (%, negative = inhibition) at 10uM” value is recorded as -9.51%.

As for `COc1nc(N/N=C/c2cc3c(cc2Br)OCO3)nc(N2CCOCC2)n1`, the “hERG current change (%, negative = inhibition) at 10uM” value is listed as -27.8%. Take `C=CCn1c(SCC(=O)c2[nH]c(C)c(C(=O)OCC)c2C)nc2scc(-c3ccc(OC)c(OC)c3)c2c1=O`: the “hERG current change (%, negative = inhibition) at 10uM” value is recorded as 30%. To `Cc1ccc(C(=O)Nc2sc3c(c2C(=O)O)CCCC3)o1` belongs 24.8%; to `COc1ccccc1C(=O)NCCC(=O)Nc1ccc(OC(F)(F)F)cc1`, -3.85%; to `Cc1ccc2nc(/C(C#N)=C\c3ccc(N4CCOCC4)o3)[nH]c2c1`, -10.3%. As to `C/C(CC(=O)Nc1ccccn1)=N\NC(=O)c1ccccc1`, the “hERG current change (%, negative = inhibition) at 10uM” value is listed as 2.22%. To `CC(C)(C)c1ccc(OCCCC(=O)Nc2ccc(S(N)(=O)=O)cc2)cc1` belongs -25.8%. Under `COc1ccc(NC(=O)N2CCC(n3cnc4ccccc43)CC2)cc1` stands -28.5%; under `CN(C)C(=O)C1C2NC(=S)N(c3ccc(Cl)cc3)C1(C)Oc1ccc(Cl)cc12` (centres unmarked), -3.96%; under `Cc1ccccc1-n1nc(C)c2c(C(=O)NN)cc(-c3ccncc3)nc21`, 38.5%. To `CC(=O)Nc1ccc(NC(=O)C/C(C)=N/NC(=O)c2cccc3ccccc23)cc1` belongs 0.867%; to `COc1cc(OC)c(OC)cc1/C=N/NC(=O)CSc1ccccc1F`, 0.803%; to `O=C(C[n+]1ccc(C(=O)c2ccccc2)cc1)Nc1ccc(C(F)(F)F)cc1.[Cl-]`, -11.6%. `O=C(COC(=O)c1ccc(Br)o1)NCCNC(=O)COC(=O)c1ccc(Br)o1`: the “hERG current change (%, negative = inhibition) at 10uM” value is listed as 12%.

As for `CCCOc1ccc(C(=O)NCCCn2ccnc2)cc1`, the “hERG current change (%, negative = inhibition) at 10uM” value is -12.7%.

For the compound `CCOc1ccccc1OCC(=O)Nc1ccc(S(=O)(=O)Nc2nc(C)cc(C)n2)cc1`, the “hERG current change (%, negative = inhibition) at 10uM” value is listed as -8.26%. To `COc1cc2c(cc1OC)CN(C(=O)CN1CCN(S(=O)(=O)c3ccccc3)CC1)CC2` belongs -16.7%; to `O=C(COC(=O)c1ccc(NS(=O)(=O)c2cccs2)cc1O)NCc1ccccc1`, 4.53%; to `CCOC(=O)COn1c(=O)c(-c2ccc(OC)c(OC)c2)[n+]([O-])c2ccccc21`, -11.9%. `CCCn1c(SCC(=O)N(C)CC(=O)Nc2ccc(Cl)cc2)n[nH]c1=O`: the “hERG current change (%, negative = inhibition) at 10uM” value is reported as -2.98%.

Regarding `CCOC(=O)c1sc2nc(C3CC3)cc(-c3ccc(F)cc3)c2c1N`, the “hERG current change (%, negative = inhibition) at 10uM” value turned out to be 10.7%.

Turning to `COC(=O)CCCC1=CC2=C(c3ccccc3)C(=O)C(C)(OC(=O)C3CCCC3)C(=O)C2=CN1CC1CC1` (centres unmarked), the “hERG current change (%, negative = inhibition) at 10uM” value is on record as -39.9%.

Turning to `CCC(=S)/C=C1\Sc2ccccc2N1CCCS(=O)(=O)[O-].[Na+]`, the “hERG current change (%, negative = inhibition) at 10uM” value came to 4.78%.

For the compound `COc1cccc(N2CC(C(=O)Oc3ccc4ccccc4c3)CC2=O)c1` (centres unmarked), the “hERG current change (%, negative = inhibition) at 10uM” value is -7.91%. To `CC(C)(C(=O)c1ccccc1)/[N+]([O-])=C/c1ccc(F)cc1` belongs -15.3%; to `COc1ccc(C2CC(=O)N3CN(Cc4ccco4)CSC3=C2C#N)cc1` (centres unmarked), 15.7%; to `CC(C)N(C)Cc1nnnn1CC(=O)N(C)Cc1cccc(Cl)c1`, 9.31%. Under `CCSC1=N/C(=C\c2ccc3c(c2)OCO3)C(=O)S1` stands 6.71%; under `Cc1cc(OC(C)C(=O)NCc2cccnc2)c2c3c(c(=O)oc2c1)CCC3` (centres unmarked), 17.7%.

Turning to `O=c1cc(CSc2nnc(COc3ccccc3Cl)o2)nc2sccn12`, the “hERG current change (%, negative = inhibition) at 10uM” value is listed as -43.6%.

Take `C/C(=N\NC(=O)C1CC1)c1ccc(C)cc1C`: the “hERG current change (%, negative = inhibition) at 10uM” value worked out at 3.18%. Under `COc1ccc(NC(=S)Nc2cccc3ccccc23)cc1OC` stands 10.4%; under `O=C(CSc1nnc2ccccn12)NNC(=O)c1ccc(Cl)cc1`, 7.36%. Consider `COc1ccc(NC(=O)c2csc(Cc3ccccc3)n2)cc1`, for which the “hERG current change (%, negative = inhibition) at 10uM” value is on record as -10.3%. On to `Cc1ccc(C2CC(C(F)(F)F)n3nc(C(=O)NCCN4CCOCC4)cc3N2)cc1` (centres unmarked), for which the “hERG current change (%, negative = inhibition) at 10uM” value is recorded as -6.47%.
